Test results as given in PubChem BioAssay AID651820 (National Center for Advancing Translational Sciences (NCATS), 2012).
In all, about 340,000 compounds went through this assay and about 12,000 (3.5%) were called active. Inconclusive results, whose numbers are uncertain, are shown with a selection of clear calls. Calls come from the whole dose curve; as a rule, active = well fitted inhibition curve with a large enough effect; inconclusive = small, poorly fitted or top-dose-only effect, or another doubt; inactive = no such curve, though single readings can be large or run the other way. Potencies of inconclusive entries are left out as doubtful fits.

Test: qHTS Assay for Inhibitors of Hepatitis C Virus (HCV)
Settings: Huh7.5.1 HCVcc-Cre (HCVcc is cell-culture hepatitis C virus) infection, luciferase reporter, 44 h; series mostly up to 41.8 µM
Method in brief: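 Infectious HCV cell culture screen: compound-treated cells (1,000/well, pre-plated 4 h) are infected with HCVcc-Cre at roughly 0.5 moi and grown 44 h. Infection is quantified by luciferase signal after 15 min substrate incubation at room temperature.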
Potency is the fitted concentration of half-maximal effect; tags give direction and shape of the fitted curve.

With `O=C(N/N=C\c1cccnc1)c1ccccc1O` as the compound, how does the Potency read?
The Potency was “inactive”.

Which Potency does the source give for `CCOc1cc(/C=N/Nc2ncc(C)c(=O)[nH]2)ccc1O` here?
Its Potency is “inactive”.

For `Cc1ccc(C2=NN(C(=O)CCC(=O)O)C(c3cn(-c4ccccc4)nc3-c3ccc(C)cc3)C2)cc1` (centres undefined), which Potency is on record?
Its Potency is “inactive”.

For `Cc1ccc(CNC(=O)CCCOc2cc(=O)n(C)c3ccccc23)o1`, which Potency is on record?
Its Potency is “inactive”.

For `O=C(c1ccc(Cl)c([N+](=O)[O-])c1)N(Cc1ccc(Cl)cc1)C1CCS(=O)(=O)C1` (centres undefined), which Potency is on record?
The Potency was inconclusive [inhibitor, single point].

Which Potency does the source give for `O=C(c1ccc(Cl)cc1)N1CCN(S(=O)(=O)/C=C/c2ccccc2)CC1` here?
The Potency was inconclusive [inhibitor, single point].

With `Cc1ccccc1N(C)C(=O)C1CCCN(c2ncnc3c2nc2n3CCCCC2)C1` (centres undefined) as the compound, how does the Potency read?
The Potency was inconclusive [inhibitor, single point].

With `CCOC(=O)c1ccc(NC(=S)Nc2ccccc2)cc1` as the compound, how does the Potency read?
Its Potency is inconclusive [inhibitor, single point].

Which Potency does the source give for `COc1cc(C)ccc1N(CCCN1C(=O)c2cccc3cccc(c23)C1=O)C(=O)c1cccs1` here?
The Potency was active: 5.62 µM.

For `CC(=O)c1c(C)[nH]c(C(=O)OCc2ccc(Br)cc2)c1C`, which Potency is on record?
The Potency was active: 4.47 µM.

For `COc1ccc(NS(=O)(=O)c2cc(-c3cnc(C4CC4)o3)ccc2C)cc1`, which Potency is on record?
The Potency was inconclusive [inhibitor, single point].

With `CC(C)OCCCNc1ncnc2c1cnn2-c1ccccc1` as the compound, how does the Potency read?
Its Potency is inconclusive [inhibitor, partial curve].

With `Cc1ccccc1Nc1nc(N)nc(COC(=O)c2cccn2C)n1` as the compound, how does the Potency read?
Its Potency is inconclusive [inhibitor, single point].

For `Nc1nonc1-n1nnc(C(=O)N/N=C/c2ccc3c(c2)OCO3)c1-c1ccccc1`, which Potency is on record?
Its Potency is inconclusive [inhibitor, single point].

Which Potency does the source give for `COc1cc(C(C)=NNC(=O)c2ccncc2)ccc1O` here?
Its Potency is “inactive”.

For `CCN(c1ccccc1)S(=O)(=O)c1ccc(OC)c(NC(=O)Cc2ccccc2OC)c1`, which Potency is on record?
Its Potency is active: 10 µM.

Which Potency does the source give for `Nc1ccc(-n2nc3ccccc3n2)cc1` here?
The Potency was “inactive”.

With `COc1ccc(OC)c(/C=C/C(=O)OCC(=O)Nc2ccc(Cl)c(S(=O)(=O)N(C)C)c2)c1` as the compound, how does the Potency read?
Its Potency is inconclusive [inhibitor, full curve, poor fit].

Which Potency does the source give for `N#CCOc1nc(N2CCCCC2)nc(N2CCCCC2)n1` here?
Its Potency is active: 14.1 µM.

For `COCCOc1cc(COC)nc(-c2cccc(C)c2)n1`, which Potency is on record?
Its Potency is “inactive”.

For `Cc1ccccc1C(=O)c1cccn1CC(=O)NCCCc1ccccc1`, which Potency is on record?
Its Potency is “inactive”.

For `CCCn1c2ccccc2c2nnc(SCC(=O)Nc3c(C)n(C)n(-c4ccccc4)c3=O)nc21`, which Potency is on record?
Its Potency is inconclusive [inhibitor, partial curve].

For `CCCc1ccc2oc(C(=O)NCCc3nc(C(=O)OCC)cs3)c(C)c2c1`, which Potency is on record?
The Potency was inconclusive [inhibitor, single point].

With `COc1ccc(C(=O)N=C2SC3CS(=O)(=O)CC3N2c2ccccc2)cc1OC` (centres undefined) as the compound, how does the Potency read?
Its Potency is “inactive”.

Which Potency does the source give for `NS(=O)(=O)c1ccc(CCNC(=O)CN2CCN(c3ccc(F)cc3)CC2)cc1` here?
The Potency was inconclusive [inhibitor, partial curve, poor fit].

With `COC(=O)c1n[nH]n(-c2cc(Cl)cc(Cl)c2)c1=O` as the compound, how does the Potency read?
The Potency was “inactive”.

Which Potency does the source give for `COC(=O)c1cccc(N(CC(=O)NC2CCCC2)C(=O)CCC(=O)Nc2cc(C)on2)c1` here?
The Potency was “inactive”.

With `COCCCNC(=O)c1c(N)n(/N=C/c2ccccn2)c2nc3ccccc3nc12` as the compound, how does the Potency read?
Its Potency is inconclusive [inhibitor, single point].

With `N#Cc1cc(-c2ccccc2)nc(Oc2ccccc2)n1` as the compound, how does the Potency read?
The Potency was active: 10 µM.

With `Cc1ccc(NS(=O)(=O)c2ccc(NC(=O)C(C)Sc3ccc(Cl)cc3)cc2)c(C)c1` (centres undefined) as the compound, how does the Potency read?
Its Potency is inconclusive [inhibitor, single point].

Which Potency does the source give for `O=c1cc(-c2ccc(O)c(O)c2)oc2c1ccc1ccccc12` here?
Its Potency is inconclusive [inhibitor, single point].

For `CCN(CC)c1ccc(/C=N/NC(=O)c2cccc(S(=O)(=O)N3CCOCC3)c2)cc1`, which Potency is on record?
Its Potency is active: 10 µM.

For `Cc1ccc(CCNC(=O)CCCn2nc(C)c3c(C)n(-c4ccc(C)cc4)nc3c2=O)cc1`, which Potency is on record?
Its Potency is inconclusive [inhibitor, single point].

Which Potency does the source give for `COc1cccc(-c2csc(N3CCN(CC(=O)NNC(=O)c4ccco4)CC3)n2)c1` here?
Its Potency is inconclusive [inhibitor, partial curve].

For `COc1ccc(NC(=O)CCCN2C(=O)C(c3ccccc3)Oc3cccnc32)cc1OC` (centres undefined), which Potency is on record?
The Potency was inconclusive [inhibitor, single point].

Which Potency does the source give for `COc1ccc(CNC(=O)C2CCCN(S(=O)(=O)c3cc(C)ccc3OC)C2)cc1` (centres undefined) here?
Its Potency is inconclusive [inhibitor, single point].

With `Cc1c(C(=O)N2CCC(C(N)=O)CC2)oc2ccc(Br)cc12` as the compound, how does the Potency read?
Its Potency is “inactive”.

Which Potency does the source give for `NCCSc1c(-c2ccc(F)cc2)[nH]c2ccccc12` here?
The Potency was inconclusive [inhibitor, single point].

With `CC(C)C[C@H]1CNC(=S)N1CC1CCCN1C[C@H](Cc1ccccc1)N1C[C@H](Cc2ccc(O)cc2)N(CC2CCCCCC2)C1=S` (some centres undefined) as the compound, how does the Potency read?
Its Potency is active: 6.31 µM.

With `COCc1cc(=O)[nH]c(SCCS(=O)(=O)c2ccc(Cl)cc2Cl)n1` as the compound, how does the Potency read?
The Potency was “inactive”.

Which Potency does the source give for `COc1ccccc1NC(=O)Nc1nc(CC(=O)Nc2ccc(OC)c(OC)c2)cs1` here?
Its Potency is inconclusive [inhibitor, partial curve].

With `COc1cccc(C(=O)Oc2cc3c4c(c2)C(C)=CC(C)(C)N4C(=O)C3=O)c1` as the compound, how does the Potency read?
Its Potency is inconclusive [inhibitor, single point].

Which Potency does the source give for `CSc1ccccc1NC(=O)COc1ccc(Cl)cc1Cl` here?
The Potency was inconclusive [inhibitor, single point].

Which Potency does the source give for `COc1ccc(NC(=O)COC(=O)CCC2CCCCC2)cc1` here?
Its Potency is “inactive”.

Which Potency does the source give for `O=C(Nc1ccc(Br)cn1)c1ccc(Br)s1` here?
The Potency was inconclusive [inhibitor, single point].

For `Cc1cc(C)cc(NC(=O)NCC2CCN(Cc3cc(C)ccc3C)CC2)c1`, which Potency is on record?
Its Potency is inconclusive [inhibitor, single point].

Which Potency does the source give for `CCOc1ccc(C(=O)C(CCC(CN(C)C)C(=O)c2ccc(OCC)cc2)CN(C)C)cc1` (centres undefined) here?
The Potency was active: 3.16 µM.

With `CC(=O)c1c(C)[nH]c(C(=O)NNC(=O)c2ccc(Br)cc2)c1C` as the compound, how does the Potency read?
The Potency was inconclusive [inhibitor, single point].

With `COc1ccc2cc(C3=CC(=O)C[C@H](c4ccc5c(c4)OCO5)C3)ccc2c1` as the compound, how does the Potency read?
Its Potency is inconclusive [inhibitor, single point].

Which Potency does the source give for `C/C(=C\c1ccco1)CN1CCC(N2CCC(C(=O)N3CCOCC3)CC2)CC1` here?
Its Potency is inconclusive [inhibitor, single point].

Which Potency does the source give for `COc1ccc2ccccc2c1/C=N/N1C(=O)CSC1=S` here?
Its Potency is inconclusive [inhibitor, single point].

With `Cc1csc2c(N3CCN(C(=O)NC(C)(C)C)CC3)ncnc12` as the compound, how does the Potency read?
Its Potency is inconclusive [inhibitor, single point].

With `COc1ccccc1C(=O)NNC(=O)c1ccc2ccccc2c1` as the compound, how does the Potency read?
Its Potency is “inactive”.

Which Potency does the source give for `COc1ccccc1OCC(=O)NCC(c1cccs1)N1CCOCC1` (centres undefined) here?
The Potency was “inactive”.

With `O=C(Nc1ccncc1)C1c2ccccc2Oc2ccccc21` as the compound, how does the Potency read?
Its Potency is “inactive”.

With `CC(C)OC(=O)C(C(=O)C(F)(F)F)c1cc(NS(=O)(=O)c2ccc3ccccc3c2)c2ccccc2c1O` (centres undefined) as the compound, how does the Potency read?
Its Potency is inconclusive [inhibitor, single point].

For `CNS(=O)(=O)c1cccc(C(=O)OCC(=O)N(Cc2ccccc2)C(C)(C)C)c1`, which Potency is on record?
Its Potency is inconclusive [inhibitor, single point].

Which Potency does the source give for `CCNc1nc(NCC)n2c(SCC(=O)Nc3ccc(NC(C)=O)cc3)nnc2n1` here?
The Potency was inconclusive [inhibitor, single point].

Which Potency does the source give for `COc1ccc(C(=O)CC(=O)c2ccccc2O)cc1` here?
Its Potency is inconclusive [inhibitor, partial curve].

With `C/C(CC(=O)Nc1cccc2c1CCCC2)=N\NC=O` as the compound, how does the Potency read?
Its Potency is “inactive”.

With `CC(C)=CC(=O)OCC(=O)Nc1ncc(Cl)c(C)c1Cl` as the compound, how does the Potency read?
The Potency was inconclusive [inhibitor, full curve, poor fit].

For `O=C(COc1ccc(Cl)cc1Cl)N(C1CCCCC1)C1CCS(=O)(=O)C1` (centres undefined), which Potency is on record?
Its Potency is “inactive”.

For `CC1CC(C)CN(C(=O)CCCn2c(=O)c3cccn3c3cccnc32)C1` (centres undefined), which Potency is on record?
Its Potency is “inactive”.

Which Potency does the source give for `CC(=O)c1c(C)c(C)c2n1CCn1c(C)ccc1-2` here?
Its Potency is inconclusive [inhibitor, single point].

For `CCc1nc2ccc(C(=O)NCc3ccc(C)o3)cc2nc1CC`, which Potency is on record?
Its Potency is inconclusive [inhibitor, partial curve].

For `Cc1c(C(=O)N2CCCCC2)oc2ccc(Br)cc12`, which Potency is on record?
Its Potency is active: 22.4 µM.

With `CCOC(=O)c1ccccc1NC(=O)COC(=O)C(Cc1c[nH]c2ccccc12)NC(C)=O` (centres undefined) as the compound, how does the Potency read?
The Potency was “inactive”.

For `O=C(/C=C/c1ccco1)N(Cc1cccc(Cl)c1)C1CCS(=O)(=O)C1` (centres undefined), which Potency is on record?
The Potency was “inactive”.

With `O=C(c1[nH]nc2c1CCc1ccccc1-2)N1CCN(Cc2ccc3c(c2)OCO3)CC1` as the compound, how does the Potency read?
The Potency was inconclusive [inhibitor, partial curve].

Which Potency does the source give for `O/N=C(/CCc1ccccc1)c1ccc2c(c1)OCCO2` here?
The Potency was “inactive”.

For `Cc1nc(Nc2cccc(C(F)(F)F)c2)nc2c1C(=O)CC(C)C2` (centres undefined), which Potency is on record?
The Potency was “inactive”.

For `COc1cc2c(cc1OC)C(c1ccccc1)N(C(=O)c1ccccc1F)CC2` (centres undefined), which Potency is on record?
Its Potency is “inactive”.

With `CC(=O)Nc1ccc(-c2csc(NC=C3C(=O)OC(C)(C)OC3=O)n2)cc1` as the compound, how does the Potency read?
Its Potency is “inactive”.

For `Cc1cc(=O)oc2c3c(cc(OCC(=O)NCCCn4ccnc4)c12)OC(C)(C)CC3`, which Potency is on record?
Its Potency is inconclusive [inhibitor, partial curve].
